According to patent publication US9873709B2 (priority 2013, dated 2018):

target: isolated recombinant JAK1 kinase domain (Homo sapiens (Human), UniProt P23458); conditions: read-out: JAK1 Ki
Sequence (P23458 875-1153): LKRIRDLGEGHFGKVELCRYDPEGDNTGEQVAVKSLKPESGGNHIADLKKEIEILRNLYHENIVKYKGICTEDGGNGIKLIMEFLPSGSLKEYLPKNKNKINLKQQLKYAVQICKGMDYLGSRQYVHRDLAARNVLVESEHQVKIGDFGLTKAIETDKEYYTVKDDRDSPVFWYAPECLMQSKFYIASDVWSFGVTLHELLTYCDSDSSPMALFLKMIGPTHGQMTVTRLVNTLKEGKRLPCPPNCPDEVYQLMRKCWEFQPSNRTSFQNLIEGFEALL

Structure (SMILES) | Ki
CN1CCC(N(C)C(=O)c2ccc(Nc3nc4c(C5=CCC(CC#N)(c6ccc(Cl)cc6)CC5)cccn4n3)cc2)CC1 (centres unmarked) [Example 1-294, 4-([8-[4-(4-chlorophenyl)-4-(cyanomethyl)cyclohex-1-en-1-yl]-[1,2,4]triazolo[1,5-a]pyridin-2-yl]amino)-N-methyl-N-(1-methylpiperidin-4-yl)benzamide] | 0.68 nM
CC(C)CN1CCC(N(C)C(=O)Cn2cc(Nc3nc4c(C5=CCN(C(=O)CCC(F)(F)F)CC5)cccn4n3)cn2)CC1 [Example 1-297, N-methyl-N-[1-(2-methylpropyl)piperidin-4-yl]-2-[4-([8-[1-(4,4,4-trifluorobutanoyl)-1,2,3,6-tetrahydropyridin-4-yl]-[1,2,4]triazolo[1,5-a]pyridin-2-yl]amino)-1H-pyrazol-1-yl]acetamide] | 1.7 nM

same assay, conditions: read-out: JAK1 Ki; isolated recombinant JAK1 kinase domain, 25 μM ATP

Structure (SMILES) | Ki
CN1CCC(N(C)C(=O)c2ccc(Nc3nc4c(N5CCC(C(=O)O)(c6ccc(Cl)cc6)CC5)cccn4n3)cc2)CC1 [Example 1-269, 4-(4-chlorophenyl)-1-[2-([4-[methyl(1-methylpiperidin-4-yl)carbamoyl]phenyl]amino)-[1,2,4]-triazolo[1,5-a]pyridin-8-yl]piperidine-4-carboxylic acid] | 28.5 nM
CN1CCCC12CN(C(=O)c1ccc(Nc3nc4c(N5CCC(CO)(c6ccc(Cl)cc6)CC5)cccn4n3)cc1)C2 [Example 1-274, [4-[[8-[4-(4-chlorophenyl)-4-(hydroxymethyl)-1-piperidyl]-[1,2,4]triazolo[1,5-a]pyridin-2-yl]amino]phenyl]-(5-methyl-2,5-diazaspiro[3.4]octan-2-yl)methanone] | 0.2 nM
COC(=O)CCN1CCN(C(=O)Cn2cc(Nc3nc4c(N5CCC(CO)(c6ccc(Cl)cc6)CC5)cccn4n3)cn2)CC1 [Example 1-290, Methyl 3-(4-[2-[4-([8-[4-(4-chlorophenyl)-4-(hydroxymethyl)piperidin-1-yl]-[1,2,4]triazolo[1,5-a]pyridin-2-yl]amino)-1H-pyrazol-1-yl]acetyl]piperazin-1-yl)propanoate] | 0.18 nM
CN1CCC(N(C)C(=O)c2ccc(Nc3nc4c(N5CC6CC5CN6Cc5ccccc5)cccn4n3)cc2)CC1 (centres unmarked) [Example 1-293, 4-[[8-(5-benzyl-2,5-diazabicyclo[2.2.1]heptan-2-yl)-[1,2,4]triazolo[1,5-a]pyridin-2-yl]amino]-N-methyl-N-(1-methyl-4-piperidyl)benzamide] | 173 nM
O=C(NCCCN1CCOCC1)c1ccc(Nc2nc3c(C4C=CN(C(=O)CCC(F)(F)F)CC4)cccn3n2)cc1 (centres unmarked) [Example 1-295, N-(3-morpholinopropyl)-4-[[8-[1-(4,4,4-trifluorobutanoyl)-3,4-dihydro-2H-pyridin-4-yl]-[1,2,4]triazolo[1,5-a]pyridin-2-yl]amino]benzamide] | 7.38 nM
CN1CCC(N(C)C(=O)c2ccc(Nc3nc4c(N5CCC(CC(N)=O)(c6ccc(Cl)cc6)CC5)cccn4n3)cc2)CC1 [Example 1-298] | 0.63 nM
CN1CCC(N(C)C(=O)c2ccc(Nc3nc4c(N5CCC(CC(=O)N(C)C)(c6ccc(Cl)cc6)CC5)cccn4n3)cc2)CC1 [Example 1-300, 4-([8-[4-(4-chlorophenyl)-4-[(dimethylcarbamoyl)methyl]piperidin-1-yl]-[1,2,4]triazolo[1,5-a]pyridin-2-yl]amino)-N-methyl-N-(1-methylpiperidin-4-yl)benzamide] | 1.23 nM
CN1CCC(N(C)C(=O)c2ccc(Nc3nc4c(N5CCC(C)(NC(=O)c6ccccc6)CC5)cccn4n3)cc2)CC1 [Example 1-302, 4-[[8-(4-benzamido-4-methyl-1-piperidyl)-[1,2,4]triazolo[1,5-a]pyridin-2-yl]amino]-N-methyl-N-(1-methyl-4-piperidyl)benzamide] | 22.2 nM
CN1CCC(N(C)C(=O)c2ccc(Nc3nc4c(N5CCC(C)(NS(=O)(=O)c6ccccc6)CC5)cccn4n3)cc2)CC1 [Example 1-303, 4-[[8-[4-(benzenesulfonamido)-4-methyl-1-piperidyl]-[1,2,4]triazolo[1,5-a]pyridin-2-yl]amino]-N-methyl-N-(1-methyl-4-piperidyl)benzamide] | 46 nM
